Test results: the RNAGym collection of RNA variant scans (doi:10.7554/elife.90254)
Read counts are not given, so values of variants with three or more changes are uncertain.

B1: LINE1-mini (parent)
chain: GGCAGAGCUCAACACAGCGUGGCAAAGUGGCUGUGGCUAGACUGCC

Variants of: B1
Test: self-cleavage, relative activity (ratio to wild type); higher = more cleavage; in vitro, sequencing; the parent is a self-cleaving ribozyme

Variant	self-cleavage
CGCAGAGCUCAACACAGCGUGGCAAAGUGGCCGUGGAUAGACCGCC [G1C U32C C37A U43C]	0.01
UGUAACGCUCAACACAGCGUGGCAAUGUGGCUGUGGCUAGACUGCC [G1U C3U G5A A6C A26U]	0.24
UGCAGCGCUAAACACAGCGUGGCAAAGUGGCUUUGGCUAGAAUGCC [G1U A6C C10A G33U C42A]	0.01
UGCAGUCCUCAACAAAGCGUGGCAAAUUGGCUGUGGCUAGACUGCC [G1U A6U G7C C15A G27U]	0.04
CGCAGAGCUCAACACAGCGAGGCAAAGUUGCUGUGGCUAGACAGCC [G1C U20A G29U U43A]	0
UGCGGAACUCAACACAGCCUGGCAAAGUGGCUGUGGCCAGACUCCC [G1U A4G G7A G19C U38C G44C]	0.01
UGCAGAGCUCAACACAGCGUGGCGAAAUGGCUGUGGCUAGACUGCC [G1U A24G G27A]	0.24
UGCAGAGCUCAACACAGCGUGGCAGAUUGGCUGUGGCUAGACUGCC [G1U A25G G27U]	0.04
UGCCGAGGUCAACACAGCGUGGCAAAGUGGCCGUGGCUAGACUGAC [G1U A4C C8G U32C C45A]	0.08
UGCAGUGCUCAACACAUCGUGGCAAAGAGGCUGUGGCUAGACUGCC [G1U A6U G17U U28A]	0.03
UGAAGGGCUCAACACAGCGUGGCGAAGUGGAUGUGGCUAGACUGCC [G1U C3A A6G A24G C31A]	0.13
UGCAGAGCUCUACACAGCGUGGCAAAGUGGCUGUGCCUAGACUGCC [G1U A11U G36C]	0.01
UGCAGAGCUCAUCAGAGUGUGGCAAAGUGCCUGUGGCUAGACUGCC [G1U A12U C15G C18U G30C]	0
UGCGGAGCUCAAUACAGCGUUGCAUAGUGGAUGUGGCUAGACUGCC [G1U A4G C13U G21U A25U C31A]	0.03
UGCAGAGCUCAACACAGCGUGGCAAGGGGCCUGUGGCUAGACUGCC [G1U A26G U28G G30C]	0.37
UGCAGGGCUCAACACAGCGUGGCAAAGUGCCUGUGGCGAGACUGCC [G1U A6G G30C U38G]	0
UGCAGUGCUCAACACAGCGUGGCAAAGUGGCUGCGGCUAGACUGCC [G1U A6U U34C]	0.09
UGCAGAGCUCAACACAGCGUGGCUAAGUGGCCGUGGCUAGACUGCC [G1U A24U U32C]	0.04
UGAAGAGCUCAACACAGCGUGGAAAACUGGCUGUGGCUAGACUGCA [G1U C3A C23A G27C C46A]	0.42

Variant	self-cleavage
UGCAGAGCUCAACACAGCGUGGCAACGUGGCUGUGGCUAGACCGCC [G1U A26C U43C]	0.03
UGGAGAGCUCAGCACAGCGUGGCAAAGUAGCUGUGCCUAGACUGCC [G1U C3G A12G G29A G36C]	0.04
UGCAGAGCUCAACACAGCGUGGCUAAGUGGCUGUGGAUAGUCUGCC [G1U A24U C37A A41U]	0.04
UGCAGCGCUCAACACAGCGUGGCAAAGUGGCUGCGGCUAGACUGCC [G1U A6C U34C]	0.03
UGCAGAGCUCAACCCAGCGUGGCAAAGUGGAUGUGGCUAGACUGCA [G1U A14C C31A C46A]	0.01
UGCAGUGCUCAACACGGCGUGGCGAUGUGGCUGUGGCUUGACUGCC [G1U A6U A16G A24G A26U A39U]	0.03
UGGAGAGCUCAACACAGCGUGGCAAAGUGCCUGUGGCUGGACUGCC [G1U C3G G30C A39G]	0.06
UGCAGAGAUCAACACAGCGUGGCAAAGUGUCUGUGGCUAGACUGCC [G1U C8A G30U]	0.23
UGUAGAGCUCAACACAGCGUGGCAAAGUGCGUGUGGCAAGAUUGCC [G1U C3U G30C C31G U38A C42U]	0.08
UGCAGAGCUCAACACAGCGUGGCAAUGUGGCUGUGGCUAGACUUCC [G1U A26U G44U]	0.1
UGCAGUGCUCAACACAGCGUGACAAAGGGGCUGUCGCUAGACUGCC [G1U A6U G22A U28G G35C]	0.07
UGCAGAGCUCAGCACAGCGUGGCAAAGUGGUUGUGGCUAGACUGCC [G1U A12G C31U]	0.11
UGCAGAGCUCAACACAGCGUGGCCAAGUUGCUGUGGCUAGACUGCC [G1U A24C G29U]	0.34
UGCAGGGCUCAACACAGCGUGGCUAAGUGGCUGUGGCUAGACUGCC [G1U A6G A24U]	0.18
UGCAGAGCUCAACACAGCGUGGCCAAGUGGCUGUGGCUAUAAUGCC [G1U A24C G40U C42A]	0.08
UGCAGAGCUCUACACAGCGUGGCAGAGUGGCUGUGUCUAGACUGCC [G1U A11U A25G G36U]	0
UGCAGAGCUCAACACAGCGUGGCCAAGUGGCUGUGGCUAAACUGCC [G1U A24C G40A]	0
UGCAGAGCUCAGUACAGCGUGGCAAAUUGACUGUGGCUAGACUGCC [G1U A12G C13U G27U G30A]	0.01
UGCAGAGCUCAGCACAGCGUAGCAAAGUGGCUGUGGCUAGACUGCC [G1U A12G G21A]	0.01

Variant	self-cleavage
UGCAGAGCUCUACACAGCGUGUCAAAGUGGCUGUGGCUAGACUGCC [G1U A11U G22U]	0.15
UGCGGAGCUCAACACAGCGUGGCAAAGUGGCAAUGGCUAGACUGCC [G1U A4G U32A G33A]	0.06
UGCAGAGCUCAACACUGCGGGGCAAAGUGGCUGUGGCUAGACGGCC [G1U A16U U20G U43G]	0.01
UGCAGAGCUCCACACAGCGUGGCAAAGUGGCUGUGGCUGGACUGCC [G1U A11C A39G]	0.01
UGUAGAGCUCAACAGACCGUGGCAAAGUGGCUGUGGCUAGUCUGCC [G1U C3U C15G G17C A41U]	0.35
UGCAGGGCUCAACACAGCGUUGCAAAGUGGCUGUGACUAGACUGCC [G1U A6G G21U G36A]	0.03
UGCCGAGAUCAAAACAACGUGGCCAAGUGGCUGUGGCUAGACUGCC [G1U A4C C8A C13A G17A A24C]	0.22
UGCCGAGCUCAACACAGCGUGGCAACAUGGCUGUGCCUAGUCUGCC [G1U A4C A26C G27A G36C A41U]	0.09
UGCAGAGCUCCACACAGAGUGGCACAGUGGCUGUGUCUAGACUGCC [G1U A11C C18A A25C G36U]	0.01
UGCGGAGCUCAAAAAAGAGUGGCAAAGUGGCUGUGGCUAGACUGCC [G1U A4G C13A C15A C18A]	0.03
UGUAGAGCUCAACACAGCGUGGCAAAGUGGCUGUUGCUAGACUGCA [G1U C3U G35U C46A]	0.1
UGCAGAGAUCAGGACAGCGUGUCAAAGUGGCUGUGGGUAGACAGCC [G1U C8A A12G C13G G22U C37G U43A]	0
UGAUGAGCUCAACACAGCGUGGCAAAGUGGCUGUUGCUAGAAUGCC [G1U C3A A4U G35U C42A]	0.08
UGGAGAGCUCAACACAGCGUGGCAACGUGGCUGUGACUAGACUGCC [G1U C3G A26C G36A]	0.37
UGCAGAGCUCAACACGGCGUGUCAAAGUGGCUGUGGCUAGACUGCC [G1U A16G G22U]	0.04
UGCAGAGCUCAACUCAGCGUGGCAAAGUCGCUGUGGCUAGACUGCC [G1U A14U G29C]	0.22
UGCGGUGCUCAACCCUGCAUGCCAAAGUGGCUGUGGCUAGACUGCC [G1U A4G A6U A14C A16U G19A G22C]	0.03
CGCAGAGCUCAACACAGCGUGGCAAAGUGGCUGUGGCUAGACCGCA [G1C U43C C46A]	0.01
